The other results are listed elsewhere or left out.
B1: PhoQ; a variant is named by its letters at X, in order, P23837 (parent)
chain: MKKLLRLFFPLSLRVRFLLATAAVVLVLSLAYGMVALIGYSVSFDKTTFRLLRGESNLFYTLAKWENNKLHVELPENIDKQSPTMTLIYDENGQLLWAQRDVPWLMKMIQPDWLKSNGFHEIEADVNDTSLLLSGDHSIQQQLQEVREDDDDAEMTHSVAVNVYPATSRMPKLTIVVVDTIPVELKSSYMVWSWFIYVLSANLLLVIPLLWVAAWWSLRPIEALAKEVRELEEHNRELLNPATTRELTSLVRNLNRLLKSERERYDKYRTTLTDLTHSLKTPLXXLQXXLRSLRSEKMSVSDAEPVMLEQISRISQQIGYYLHRASMRGGTLLSRELHPVAPLLDNLTSALNKVYQRKGVNISLDISPEISFVGEQNDFVEVMGNVLDNACKYCLEFVEISARQTDEHLYIVVEDDGPGIPLSKREVIFDRGQRVDTLRPGQGVGLAVAREITEQYEGKIVAGESMLGGARMEVIFGRQHSAPKDE

Variants of: B1
Assay: enrichment ratio after two sorts for PhoP signalling (ratio (wild type AVST 3.29)); higher = more functional
Details: with PhoP (E. coli)

Variant	enrichment ratio
MPNS	≤ 0.25
WSVE	≤ 0.25
KYEC	≤ 0.25
KCWG	≤ 0.25
RKRI	≤ 0.25
LCTW	≤ 0.25
PFDR	≤ 0.25
DYLN	≤ 0.25
PLPW	0.375
VDIE	≤ 0.25
LTKK	≤ 0.25
TWPY	≤ 0.25
VQKS	≤ 0.25
QDWG	≤ 0.25
WTYI	≤ 0.25
SQVY	14.2
LMGT	≤ 0.25
PHTI	≤ 0.25
SQSM	15.9
NWSC	≤ 0.25
PRDS	≤ 0.25
EGPK	≤ 0.25
NSFG	≤ 0.25
NSVR	≤ 0.25

Variant	enrichment ratio
WAYC	≤ 0.25
TCDI	≤ 0.25
KENF	≤ 0.25
MQEW	≤ 0.25
GMPY	≤ 0.25
KPHK	≤ 0.25
KDVC	≤ 0.25
RGFK	≤ 0.25
MPAR	≤ 0.25
YKKW	≤ 0.25
DLLI	≤ 0.25
VINP	≤ 0.25
TNRR	≤ 0.25
NQGN	≤ 0.25
GCVY	≤ 0.25
NCQG	≤ 0.25
MNKF	≤ 0.25
PINK	≤ 0.25
HCFG	≤ 0.25
ESRT	≤ 0.25
VKTG	≤ 0.25
MGIC	≤ 0.25
YPND	≤ 0.25
TYNH	≤ 0.25

Variant	enrichment ratio
EVIK	≤ 0.25
RLKF	≤ 0.25
VYDS	≤ 0.25
HSAG	≤ 0.25
KFSR	≤ 0.25
HIYP	≤ 0.25
SITK	6.98
PQSG	≤ 0.25
PGDF	≤ 0.25
SWYK	≤ 0.25
LNWC	≤ 0.25
EIRY	≤ 0.25
TLSK	6.09
NSTT	≤ 0.25
TLIW	≤ 0.25
MISG	1.79
LNMH	≤ 0.25
ESKG	≤ 0.25
IRDH	≤ 0.25
LLWL	≤ 0.25
RDWM	≤ 0.25
FYRC	≤ 0.25
ITCI	≤ 0.25
RSWY	≤ 0.25

Variant	enrichment ratio
GACT	≤ 0.25
NAGA	≤ 0.25
KHDI	≤ 0.25
LGMP	≤ 0.25
HWSD	≤ 0.25
LHQE	≤ 0.25
HAPH	≤ 0.25
SRYT	≤ 0.25
HEPA	≤ 0.25
NAYR	≤ 0.25
FTPW	≤ 0.25
REGT	≤ 0.25
LQIF	≤ 0.25
TMVS	1.41
EIHN	≤ 0.25
DWIG	≤ 0.25
QETK	≤ 0.25
YPTA	≤ 0.25
RKAS	≤ 0.25
SMRG	≤ 0.25
DSEQ	≤ 0.25
ANVF	6.52
TCLT	4.19
WYAC	≤ 0.25

Variant	enrichment ratio
FAWS	≤ 0.25
FFFY	≤ 0.25
DTLM	≤ 0.25
AYIP	≤ 0.25
HIYG	≤ 0.25
QDLK	≤ 0.25
ITSR	≤ 0.25
ANGL	4.99
FQPK	≤ 0.25
HFFC	≤ 0.25
LLKT	≤ 0.25
SGEK	≤ 0.25
GHRM	≤ 0.25
LDKL	≤ 0.25
YYCR	≤ 0.25
KAVN	≤ 0.25
TNKS	≤ 0.25
YCFH	≤ 0.25
TWVN	≤ 0.25
WEAG	≤ 0.25
FASM	≤ 0.25
FSVN	≤ 0.25
KWHL	≤ 0.25
EHCH	≤ 0.25

Variant	enrichment ratio
WFHH	≤ 0.25
FSNL	≤ 0.25
GRKP	≤ 0.25
SRTW	≤ 0.25
SYKY	≤ 0.25
QNVC	≤ 0.25
MSCY	1.59
DHVK	≤ 0.25
HRKY	≤ 0.25
SACF	8.75
IEFP	≤ 0.25
WLWQ	≤ 0.25
IRYT	≤ 0.25
DWRD	≤ 0.25
EMQV	≤ 0.25
QKGS	≤ 0.25
RHMS	≤ 0.25
WVSY	≤ 0.25
ARYQ	≤ 0.25
QQGM	≤ 0.25
KYCV	≤ 0.25
FAFI	≤ 0.25
GKWV	≤ 0.25
NKDK	≤ 0.25

Variant	enrichment ratio
GYMM	0.253
KCGM	≤ 0.25
PVLT	≤ 0.25
LFAF	≤ 0.25
VYTV	≤ 0.25
AFQW	≤ 0.25
NVRI	≤ 0.25
QREI	≤ 0.25
LKQN	≤ 0.25
MQNW	≤ 0.25
EMFK	≤ 0.25
GWEN	≤ 0.25
YHWD	≤ 0.25
VKDT	≤ 0.25
TWYE	≤ 0.25
VRCR	≤ 0.25
PKFM	≤ 0.25
YYPA	≤ 0.25
SDFL	≤ 0.25
WNNV	≤ 0.25
PSST	≤ 0.25
WGCF	≤ 0.25
KRSS	≤ 0.25
KTMP	≤ 0.25

Variant	enrichment ratio
HATL	2.1
LVCR	0.326
NMQH	≤ 0.25
TMPR	≤ 0.25
YVGG	≤ 0.25
KCCW	≤ 0.25
MAMM	2.28
LLEM	≤ 0.25
EQWN	≤ 0.25
NSTH	≤ 0.25
ISNW	≤ 0.25
FKPC	≤ 0.25
IHAY	≤ 0.25
VICI	≤ 0.25
YELF	0.264
MDLI	≤ 0.25
DLRI	≤ 0.25
RDYV	≤ 0.25
FRQQ	≤ 0.25
STGQ	4.94
YART	≤ 0.25
SACL	11
NLCN	≤ 0.25
ERMD	≤ 0.25

Variant	enrichment ratio
NMAK	≤ 0.25
VRLE	≤ 0.25
FCHS	≤ 0.25
WRSC	≤ 0.25
GPMC	≤ 0.25
IHYI	≤ 0.25
GAQK	≤ 0.25
HIPR	≤ 0.25
WLIK	≤ 0.25
IGWN	≤ 0.25
ELWV	≤ 0.25
NREM	≤ 0.25
AKTC	30.2
LRIP	≤ 0.25
EMKG	≤ 0.25
TNEP	≤ 0.25
GQTK	≤ 0.25
QCSW	≤ 0.25
DPMC	≤ 0.25
ERWD	≤ 0.25
TVLL	≤ 0.25
TDWY	≤ 0.25
RELG	≤ 0.25
MATI	6.64

Variant	enrichment ratio
PHRT	≤ 0.25
AKLR	≤ 0.25
LWWS	≤ 0.25
GLPL	≤ 0.25
DEVF	≤ 0.25
GMML	9.66
SNFS	≤ 0.25
WFRI	≤ 0.25
TIWT	5.58
YNDF	≤ 0.25
NKSL	≤ 0.25
VNMH	0.826
RDDT	≤ 0.25
RKMY	≤ 0.25
YEKF	≤ 0.25
QTSY	4.24
EARW	≤ 0.25
LDQY	≤ 0.25
GNPA	≤ 0.25
TDYQ	≤ 0.25
FCRQ	≤ 0.25
FEGH	≤ 0.25
TYQD	≤ 0.25
AQVC	9.47

Variant	enrichment ratio
RRAL	≤ 0.25
WSEI	≤ 0.25
VRCF	≤ 0.25
KVQQ	≤ 0.25
KLMP	≤ 0.25
LRSN	≤ 0.25
TSHK	≤ 0.25
EKAN	≤ 0.25
EKPY	≤ 0.25
HAGC	≤ 0.25
ILEK	≤ 0.25
AMKC	≤ 0.25
WGGV	≤ 0.25
KDQL	≤ 0.25
ADHT	≤ 0.25
FDPY	≤ 0.25
YTCI	0.979
IMHS	≤ 0.25
LFHA	≤ 0.25
GLRT	≤ 0.25
WNSS	≤ 0.25
LDHD	≤ 0.25
TELF	12.2
VMCP	≤ 0.25

Variant	enrichment ratio
RYKF	0.686
DPTT	≤ 0.25
DMNC	≤ 0.25
VDLV	≤ 0.25
KDIQ	≤ 0.25
ASNI	8.33
HASI	≤ 0.25
CKFF	≤ 0.25
TPMD	≤ 0.25
DRDW	≤ 0.25
PMCT	≤ 0.25
ACCA	7.21
MANK	≤ 0.25
HWMS	≤ 0.25
TNDQ	≤ 0.25
LQQT	≤ 0.25
RYCI	≤ 0.25
PMIL	≤ 0.25
KCFL	≤ 0.25
IRWG	≤ 0.25
TAAN	1.79
IVGT	≤ 0.25
MYRW	≤ 0.25
PKYT	≤ 0.25

Variant	enrichment ratio
NCYF	≤ 0.25
MARQ	≤ 0.25
IPSA	≤ 0.25
AEMN	8.59
HVPW	≤ 0.25
AHRV	≤ 0.25
IHQM	≤ 0.25
ELFQ	≤ 0.25
MKNF	≤ 0.25
PAHM	≤ 0.25
MHNT	≤ 0.25
HNVQ	≤ 0.25
YPRR	≤ 0.25
RSMG	≤ 0.25
LAEA	≤ 0.25
DSIC	≤ 0.25
QSKF	≤ 0.25
FITY	≤ 0.25

From a collection of fitness landscapes (doi:10.1126/science.1257360)
